# Source: the supplement of paper PMC8728848
# Some of the results follow.
# Legend:
# Assay in all cases: glycan array binding signal (z-score within array); higher = stronger binding
# Settings in all cases: glycan notation: IUPAC condensed, linker removed
# [1] = target: Neu5Ac(a2-6)Gal(b1-4)GlcNAc(b1-3)Gal(b1-4)GlcNAc(b1-3)Gal(b1-4)GlcNAc
# Outline: (§1)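 Glycan array binding is given as a within-array Z-score, which can be read as non-binding when negative. The arrays, 3228 of them, came from the Consortium for Functional Glycomics database and were retained only where the protein sequence was available. Z-scores were averaged across arrays of the same protein sequence at different concentrations or buffers and across linkers.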
# [2] = target: Neu5Ac(a2-6)Gal(b1-4)GlcNAc(b1-3)Gal(b1-4)GlcNAc(b1-3)Gal(b1-4)GlcNAc(b1-2)Man(a1-3)[Neu5Ac(a2-6)Gal(b1-4)GlcNAc(b1-3)Gal(b1-4)GlcNAc(b1-3)Gal(b1-4)GlcNAc(b1-2)Man(a1-6)]GalNAc
# Outline: as §1
# [3] = target: Neu5Ac(a2-6)Gal(b1-4)GlcNAc(b1-3)Gal(b1-4)GlcNAc(b1-3)GalNAc
# Outline: as §1
# [4] = target: Neu5Ac(a2-6)Gal(b1-4)GlcNAc(b1-3)Gal(b1-4)GlcNAc(b1-3)[Neu5Ac(a2-6)Gal(b1-4)GlcNAc(b1-3)Gal(b1-4)GlcNAc(b1-6)]GalNAc
# Outline: as §1
# [5] = target: Neu5Ac(a2-6)Gal(b1-4)GlcNAc(b1-3)Gal(b1-4)GlcNAc(b1-6)[Gal(b1-3)]GalNAc
# Outline: as §1
# [6] = target: Neu5Ac(a2-6)Gal(b1-4)GlcNAc(b1-3)Gal(b1-4)[Fuc(a1-3)]GlcNAc(b1-3)Gal(b1-4)[Fuc(a1-3)]GlcNAc
# Outline: as §1
# [7] = target: Neu5Ac(a2-6)Gal(b1-4)GlcNAc(b1-3)GalNAc
# Outline: as §1
# [8] = target: Neu5Ac(a2-6)Gal(b1-4)GlcNAc(b1-3)[Neu5Ac(a2-6)Gal(b1-4)GlcNAc(b1-6)]GalNAc
# Outline: as §1
# [9] = target: Neu5Ac(a2-6)Gal(b1-4)GlcNAc(b1-6)GalNAc
# Outline: as §1
# [10] = target: Neu5Ac(a2-6)Gal(b1-4)GlcNAc(b1-6)[Gal(b1-3)GlcNAc(b1-3)]Gal(b1-4)Glc
# Outline: as §1
# [11] = target: Neu5Ac(a2-6)Gal(b1-4)GlcNAc(b1-6)[Gal(b1-3)]GalNAc
# Outline: as §1
# [12] = target: Neu5Ac(a2-6)Gal(b1-4)GlcNAc6S
# Outline: as §1
# Neu5Ac(a2-6)GalNAc = target: Neu5Ac(a2-6)GalNAc
# Outline: as §1
# [13] = target: Neu5Ac(a2-6)GalNAc(b1-4)GlcNAc
# Outline: as §1
# [14] = target: Neu5Ac(a2-6)GalNAc(b1-4)GlcNAc6S
# Outline: as §1
# [15] = target: Neu5Ac(a2-6)GlcNAc(b1-4)GlcNAc
# Outline: as §1
# [16] = target: Neu5Ac(a2-6)GlcNAc(b1-4)GlcNAc(b1-4)GlcNAc
# Outline: as §1
# Neu5Ac(a2-8)Neu5Ac = target: Neu5Ac(a2-8)Neu5Ac
# Outline: as §1
# [17] = target: Neu5Ac(a2-8)Neu5Ac(a2-3)Gal(b1-3)GalNAc(b1-4)[Neu5Ac(a2-3)]Gal(b1-4)Glc
# Outline: as §1
# [18] = target: Neu5Ac(a2-8)Neu5Ac(a2-3)Gal(b1-3)GalNAc(b1-4)[Neu5Ac(a2-8)Neu5Ac(a2-3)]Gal(b1-4)Glc
# Outline: as §1
# [19] = target: Neu5Ac(a2-8)Neu5Ac(a2-3)Gal(b1-4)Glc
# Outline: as §1
# [20] = target: Neu5Ac(a2-8)Neu5Ac(a2-3)Gal(b1-4)GlcNAc
# Outline: as §1
# [21] = target: Neu5Ac(a2-8)Neu5Ac(a2-3)[Gal(b1-3)GalNAc(b1-4)]Gal(b1-4)Glc
# Outline: as §1
# [22] = target: Neu5Ac(a2-8)Neu5Ac(a2-3)[GalNAc(b1-4)]Gal(b1-4)Glc
# Outline: as §1
# [23] = target: Neu5Ac(a2-8)Neu5Ac(a2-8)Neu5Ac
# Outline: as §1
# [24] = target: Neu5Ac(a2-8)Neu5Ac(a2-8)Neu5Ac(a2-3)Gal(b1-4)Glc
# Outline: as §1
# [25] = target: Neu5Ac(a2-8)Neu5Ac(a2-8)Neu5Ac(a2-3)[Gal(b1-3)GalNAc(b1-4)]Gal(b1-4)Glc
# Outline: as §1
# [26] = target: Neu5Ac(a2-8)Neu5Ac(a2-8)Neu5Ac(a2-3)[GalNAc(b1-4)]Gal(b1-4)Glc
# Outline: as §1
# [27] = target: Neu5Ac(a2-8)Neu5Ac(a2-8)Neu5Ac(a2-8)Neu5Ac(a2-3)[GalNAc(b1-4)]Gal(b1-4)Glc
# Outline: as §1
# [28] = target: Neu5Ac(a2-8)Neu5Gc(a2-3)Gal(b1-4)GlcNAc
# Outline: as §1
# [29] = target: Neu5Ac(b2-6)Gal(b1-4)GlcNAc
# Outline: as §1
# Neu5Ac(b2-6)GalNAc = target: Neu5Ac(b2-6)GalNAc
# Outline: as §1
# [30] = target: Neu5Ac9Ac(a2-3)Gal(b1-3)GlcNAc
# Outline: as §1
# [31] = target: Neu5Ac9Ac(a2-3)Gal(b1-4)GlcNAc
# Outline: as §1
# [32] = target: Neu5Ac9Ac(a2-6)Gal(b1-4)GlcNAc
# Outline: as §1
# [33] = target: Neu5Gc(a2-3)Gal(b1-3)GlcNAc
# Outline: as §1
# [34] = target: Neu5Gc(a2-3)Gal(b1-3)[Fuc(a1-4)]GlcNAc
# Outline: as §1
# Neu5Gc(a2-3)Gal(b1-4)Glc = target: Neu5Gc(a2-3)Gal(b1-4)Glc
# Outline: as §1
# [35] = target: Neu5Gc(a2-3)Gal(b1-4)GlcNAc
# Outline: as §1
# [36] = target: Neu5Gc(a2-3)Gal(b1-4)GlcNAc(b1-3)Gal(b1-4)GlcNAc(b1-2)Man(a1-3)[Neu5Gc(a2-3)Gal(b1-4)GlcNAc(b1-3)Gal(b1-4)GlcNAc(b1-2)Man(a1-6)]Man(b1-4)GlcNAc(b1-4)GlcNAc
# Outline: as §1
# [37] = target: Neu5Gc(a2-3)Gal(b1-4)[Fuc(a1-3)]GlcNAc
# Outline: as §1
# [38] = target: Neu5Gc(a2-6)Gal(b1-4)GlcNAc
# Outline: as §1
# Neu5Gc(a2-6)GalNAc = target: Neu5Gc(a2-6)GalNAc
# Outline: as §1
# [39] = target: Neu5Gc(a2-8)Neu5Ac(a2-3)Gal(b1-4)GlcNAc
# Outline: as §1
# [40] = target: Neu5Gc(a2-8)Neu5Gc(a2-3)Gal(b1-4)GlcNAc
# Outline: as §1
binder,measurement,setting,value
"LICBM33A (Lactococcus lactis), Q9CE94 (protein) MKKLLTGLLVAAGLLSVSLLIKTDTVSAHGYVQSPPARGYQGQLDSQSLGWTAAFNIYGNVISNPQSLEAPKGFPECGPADGRIASANGGLGQIGDFVLDNQTSSRWKKTSISTGSNIFTWKYTAPHKTTKWHYYMTKTGWDQNAPLKHSELELIGTINHDGSPATNNLSHTINIPTDRSGYHIVLAVWDVADTSNAFYNVIDINVNNKNASSQVFGPFL",glycan array binding signal (z-score),[1],-0.044
same,glycan array binding signal (z-score),[2],3.16
same,glycan array binding signal (z-score),[3],-0.872
same,glycan array binding signal (z-score),[4],-0.33
same,glycan array binding signal (z-score),[5],-0.512
same,glycan array binding signal (z-score),[6],-0.447
same,glycan array binding signal (z-score),[7],-0.023
same,glycan array binding signal (z-score),[8],-0.873
same,glycan array binding signal (z-score),[9],-0.073
same,glycan array binding signal (z-score),[10],0.003
same,glycan array binding signal (z-score),[11],1.8
same,glycan array binding signal (z-score),[12],0.165
same,glycan array binding signal (z-score),Neu5Ac(a2-6)GalNAc,-0.419
same,glycan array binding signal (z-score),[13],1.07
same,glycan array binding signal (z-score),[14],-0.146
same,glycan array binding signal (z-score),[15],-1
same,glycan array binding signal (z-score),[16],-0.55
same,glycan array binding signal (z-score),Neu5Ac(a2-8)Neu5Ac,0.194
same,glycan array binding signal (z-score),[17],0.779
same,glycan array binding signal (z-score),[18],-0.425
same,glycan array binding signal (z-score),[19],-0.459
same,glycan array binding signal (z-score),[20],-0.182
same,glycan array binding signal (z-score),[21],-0.26
same,glycan array binding signal (z-score),[22],-0.725
same,glycan array binding signal (z-score),[23],-0.117
same,glycan array binding signal (z-score),[24],-1
same,glycan array binding signal (z-score),[25],1.2
same,glycan array binding signal (z-score),[26],-0.472
same,glycan array binding signal (z-score),[27],-0.294
same,glycan array binding signal (z-score),[28],0.463
same,glycan array binding signal (z-score),[29],-0.427
same,glycan array binding signal (z-score),Neu5Ac(b2-6)GalNAc,-0.575
same,glycan array binding signal (z-score),[30],0.017
same,glycan array binding signal (z-score),[31],0.072
same,glycan array binding signal (z-score),[32],-0.166
same,glycan array binding signal (z-score),[33],0.297
same,glycan array binding signal (z-score),[34],-0.321
same,glycan array binding signal (z-score),Neu5Gc(a2-3)Gal(b1-4)Glc,-0.747
same,glycan array binding signal (z-score),[35],-0.141
same,glycan array binding signal (z-score),[36],0.898
same,glycan array binding signal (z-score),[37],0.224
same,glycan array binding signal (z-score),[38],-0.606
same,glycan array binding signal (z-score),Neu5Gc(a2-6)GalNAc,0.897
same,glycan array binding signal (z-score),[39],-0.276
same,glycan array binding signal (z-score),[40],0.032
